This note sets out measurements from paper PMC4336329 (PLoS ONE, 2015).

Among all 310,000 compounds or so, about 14,000 (4.5%) showed an effect of 50% or more. The effect is printed as a negative number. The list shows a part of the results.
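Note: peak tail current of the secondary pulse compared with the same well before compound.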

In the assay the target is human ether-à-go-go-related gene (hERG) potassium channel (human, UniProt Q12809). Briefly: primary screen, population patch clamp on CHO cells stably expressing hERG.
human ether-à-go-go-related gene (hERG) potassium channel, sequence (Q12809 whole entry, looked up): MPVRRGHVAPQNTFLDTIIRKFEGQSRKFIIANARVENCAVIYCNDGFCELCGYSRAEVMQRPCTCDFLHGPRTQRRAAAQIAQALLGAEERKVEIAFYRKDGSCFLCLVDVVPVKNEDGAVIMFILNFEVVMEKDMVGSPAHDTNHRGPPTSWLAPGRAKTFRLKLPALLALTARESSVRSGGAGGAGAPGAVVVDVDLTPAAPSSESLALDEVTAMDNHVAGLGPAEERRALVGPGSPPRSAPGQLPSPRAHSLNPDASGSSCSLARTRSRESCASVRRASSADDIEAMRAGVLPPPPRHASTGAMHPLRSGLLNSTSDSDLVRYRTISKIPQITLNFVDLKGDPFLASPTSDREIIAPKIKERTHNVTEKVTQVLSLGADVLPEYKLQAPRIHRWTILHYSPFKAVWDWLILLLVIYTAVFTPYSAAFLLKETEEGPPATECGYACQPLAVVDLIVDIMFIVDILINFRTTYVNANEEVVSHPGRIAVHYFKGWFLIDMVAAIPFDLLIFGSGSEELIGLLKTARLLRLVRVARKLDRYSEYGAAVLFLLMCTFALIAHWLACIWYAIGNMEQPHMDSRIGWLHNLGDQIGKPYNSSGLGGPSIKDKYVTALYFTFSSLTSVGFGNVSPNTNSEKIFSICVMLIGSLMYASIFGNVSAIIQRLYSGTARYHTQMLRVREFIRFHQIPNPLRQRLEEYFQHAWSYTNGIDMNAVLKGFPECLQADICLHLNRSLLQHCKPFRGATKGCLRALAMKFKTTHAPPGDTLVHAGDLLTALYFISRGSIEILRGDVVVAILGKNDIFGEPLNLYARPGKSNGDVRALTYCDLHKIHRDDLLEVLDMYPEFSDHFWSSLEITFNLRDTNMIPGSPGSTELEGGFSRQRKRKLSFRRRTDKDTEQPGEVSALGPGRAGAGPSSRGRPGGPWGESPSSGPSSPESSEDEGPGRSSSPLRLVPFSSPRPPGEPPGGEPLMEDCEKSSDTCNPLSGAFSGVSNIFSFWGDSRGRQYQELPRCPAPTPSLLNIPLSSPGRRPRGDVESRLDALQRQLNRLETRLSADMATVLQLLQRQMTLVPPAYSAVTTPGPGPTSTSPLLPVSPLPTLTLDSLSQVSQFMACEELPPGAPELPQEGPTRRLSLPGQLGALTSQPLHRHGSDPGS
With `COc1cc(S(=O)(=O)N(Cc2ccccc2)Cc2ccccn2)ccc1-n1cnnn1`, the “hERG current change (%, negative = inhibition) at 10uM” value came to 2.81%.

For the compound `Cc1ccc(C(=O)N2CCc3ccccc32)o1`, the “hERG current change (%, negative = inhibition) at 10uM” value is listed as 8.47%.

For the compound `Cc1ccc(Nc2cc(-n3nc(C)cc3C)ncn2)c(C)c1`, the “hERG current change (%, negative = inhibition) at 10uM” value is on record as -3.97%.

As for `COc1ccccc1-n1c(Cc2cccs2)n[nH]c1=S`, the “hERG current change (%, negative = inhibition) at 10uM” value is 33.3%.

Regarding `CCN(C1CCS(=O)(=O)C1)S(=O)(=O)c1cc(C)ccc1C` (centres unmarked), the “hERG current change (%, negative = inhibition) at 10uM” value was -13.9%.

As to `O=C(NCc1ccco1)c1cc(S(=O)(=O)N2CCOCC2)ccc1Br`, the “hERG current change (%, negative = inhibition) at 10uM” value is -20.9%.

As for `O=C(NCc1cccc(C(F)(F)F)c1)C1CC2Cn3c(nc4ccccc43)C2N1Cc1ccccc1` (centres unmarked), the “hERG current change (%, negative = inhibition) at 10uM” value was -57.8%.

As to `Cn1ncc(Cl)c1C(=O)N1CCC(Cc2ccccc2)CC1`, the “hERG current change (%, negative = inhibition) at 10uM” value is recorded as -16.4%.

`COc1ccc(C(CNC(=O)c2ccc(-c3nc4ccccc4s3)o2)N2CCCC2)cc1` (centres unmarked): the “hERG current change (%, negative = inhibition) at 10uM” value is recorded as -48.1%.

`COc1ccc(C(NCC(=O)Nc2c(C)cccc2C)c2ccccc2)cc1.O=C(O)C(=O)O` (centres unmarked): the “hERG current change (%, negative = inhibition) at 10uM” value was -7.85%.

For the compound `COc1ccc(/C=C/C(=O)Nc2c(C)nn(C)c2C)cc1COc1ccc(Br)cc1`, the “hERG current change (%, negative = inhibition) at 10uM” value came to 17.2%.

As to `COc1ccc(C(=O)Nc2ccccc2-c2nnn(CC(=O)Nc3ccc4c(c3)OCCO4)n2)cc1`, the “hERG current change (%, negative = inhibition) at 10uM” value was -0.148%.

As to `Cc1ccc(/C=C(\NC(=O)c2ccccc2)C(=O)NC2CCN(Cc3ccccc3)CC2)o1`, the “hERG current change (%, negative = inhibition) at 10uM” value was -55.5%.

Regarding `COc1ccccc1N(CC(O)Cn1nc(C)cc1C)S(=O)(=O)c1ccccc1` (centres unmarked), the “hERG current change (%, negative = inhibition) at 10uM” value came to 12.2%.

Take `O=C(Nc1ccccc1Cl)N1CCN(C/C=C/c2ccccc2)CC1`: the “hERG current change (%, negative = inhibition) at 10uM” value was -25.9%.

Consider `COc1cc(CNC(=O)c2ccc3c(c2)S(=O)(=O)c2ccccc2C3=O)cc(OC)c1`, for which the “hERG current change (%, negative = inhibition) at 10uM” value is reported as -0.0926%.

Consider `O=C(NCc1ccccc1)C1CCCN(S(=O)(=O)c2cccc3nsnc23)C1` (centres unmarked), for which the “hERG current change (%, negative = inhibition) at 10uM” value was 4.9%.

In the case of `Cc1noc(C)c1COc1ccc(C(=O)OCC(=O)Nc2ccc(C(=O)N(C)C)cc2)cc1`, the “hERG current change (%, negative = inhibition) at 10uM” value was 18.9%.

As for `O=C(CSc1ncccc1-c1nc2ccccc2[nH]1)N1CCN(c2ccccc2F)CC1`, the “hERG current change (%, negative = inhibition) at 10uM” value is -23.8%.

On to `CC1CCN(S(=O)(=O)c2ccc3c(c2)N(CC(=O)NCCCOC(C)C)C(=O)CO3)CC1`, for which the “hERG current change (%, negative = inhibition) at 10uM” value is on record as 12.8%.

As for `CN1CCC(=O)N(CCSc2ccccc2)CC1`, the “hERG current change (%, negative = inhibition) at 10uM” value was -3.36%.

As to `CC(C)Oc1ccc(CNS(=O)(=O)c2csc(C(N)=O)c2)cc1`, the “hERG current change (%, negative = inhibition) at 10uM” value is -9.28%.

As for `CC(=O)c1cccc(NC(=S)NCCc2ccc(Cl)cc2)c1`, the “hERG current change (%, negative = inhibition) at 10uM” value is on record as -21.6%.

On to `Cn1cc(S(=O)(=O)NCc2ccc3c(c2)OCO3)c(C(F)(F)F)n1`, for which the “hERG current change (%, negative = inhibition) at 10uM” value is given as 5.17%.

With `O=C(COC(=O)c1c(F)cccc1F)c1ccc[nH]1`, the “hERG current change (%, negative = inhibition) at 10uM” value is listed as 13.5%.

In the case of `O=C(CCc1ccccc1)NNC(=O)Cc1ccc(Cl)cc1`, the “hERG current change (%, negative = inhibition) at 10uM” value is recorded as 13.1%.

For the compound `O=C(C=C1SCCS1)/C=C/c1ccco1`, the “hERG current change (%, negative = inhibition) at 10uM” value was -15%.

Consider `CCOc1ccc(/C=N/NC(=O)CC(=O)NCc2ccccc2)cc1`, for which the “hERG current change (%, negative = inhibition) at 10uM” value came out at 3.44%.

Regarding `Cc1ccc[n+](C(C)C(=O)c2ccc(-c3ccccc3)cc2)c1.[Br-]` (centres unmarked), the “hERG current change (%, negative = inhibition) at 10uM” value was -9.47%.

`CC(CN1CCOCC1)OC(=O)COc1ccc(F)cc1` (centres unmarked): the “hERG current change (%, negative = inhibition) at 10uM” value was 3.54%.

Regarding `Cc1ccc(S(=O)(=O)N2CCCCC2)cc1C(=O)N(C)CC(=O)Nc1ccc(Cl)c(C(F)(F)F)c1`, the “hERG current change (%, negative = inhibition) at 10uM” value worked out at 1.16%.

As for `O=C(O)c1cnn(-c2nc(-c3cccc(F)c3)cs2)c1C(F)(F)F`, the “hERG current change (%, negative = inhibition) at 10uM” value is reported as 10.7%.

Consider `CC(=O)Nc1ccc(NC(=O)CSc2nnc3ccc(-c4ccccn4)nn23)cc1`, for which the “hERG current change (%, negative = inhibition) at 10uM” value came out at 3.71%.

Take `CC1CCC(NC(=O)COC(=O)c2ccco2)CC1` (centres unmarked): the “hERG current change (%, negative = inhibition) at 10uM” value worked out at 7.07%.

With `COc1ccccc1-c1nnc(SCC(=O)Nc2nc(-c3ccccc3)cs2)n1C`, the “hERG current change (%, negative = inhibition) at 10uM” value is given as -71.8%.

Take `Cc1sc2nc(C(C)C)nc(SCC(=O)N3CCOCC3)c2c1C`: the “hERG current change (%, negative = inhibition) at 10uM” value is -0.958%.

Regarding `O=C(COC(=O)c1ccc2c(c1)OCO2)NC1CCS(=O)(=O)C1` (centres unmarked), the “hERG current change (%, negative = inhibition) at 10uM” value was found to be 4.8%.

On to `COc1ccc(CCn2c(=S)[nH]c3cc(C(=O)NCc4ccco4)ccc3c2=O)cc1OC`, for which the “hERG current change (%, negative = inhibition) at 10uM” value was -1.08%.

For `Cc1cc(NC(=O)COn2nnc3ccccc32)no1`, the “hERG current change (%, negative = inhibition) at 10uM” value was 6.35%.

For `COc1ccc(CNC(=O)c2nc(S(=O)(=O)Cc3ccccc3)ncc2Cl)cc1`, the “hERG current change (%, negative = inhibition) at 10uM” value is recorded as -5.26%.

`CC1CCc2nc3ccc(S(=O)(=O)N4CCC(C(=O)NC(C)c5ccccc5)CC4)cc3c(C(=O)O)c2C1` (centres unmarked): the “hERG current change (%, negative = inhibition) at 10uM” value came to 12.2%.

For `CS(=O)(=O)N1CCN(C(=O)COc2ccc3ccccc3c2)CC1`, the “hERG current change (%, negative = inhibition) at 10uM” value stood at 1.13%.

With `CCc1ccc(Nc2nc(N3CCOCC3)nc(N3CCOCC3)n2)cc1.Cl`, the “hERG current change (%, negative = inhibition) at 10uM” value was determined as 8.6%.

For `O=C(NNC1=NCCCCC1)Nc1ccc(Cl)cc1`, the “hERG current change (%, negative = inhibition) at 10uM” value is listed as 20.5%.
